Data taken from paper PMC4336329 (PLoS ONE, 2015).
About 2,200 (0.71%) of roughly 310,000 compounds showed an effect of 50% or more. The effect is printed as a negative number. The list shows a part of the results.

biological target: human ether-à-go-go-related gene (hERG) potassium channel (human, UniProt Q12809); experiment: primary screen, population patch clamp on CHO cells stably expressing hERG
Sequence (Q12809 whole entry, looked up): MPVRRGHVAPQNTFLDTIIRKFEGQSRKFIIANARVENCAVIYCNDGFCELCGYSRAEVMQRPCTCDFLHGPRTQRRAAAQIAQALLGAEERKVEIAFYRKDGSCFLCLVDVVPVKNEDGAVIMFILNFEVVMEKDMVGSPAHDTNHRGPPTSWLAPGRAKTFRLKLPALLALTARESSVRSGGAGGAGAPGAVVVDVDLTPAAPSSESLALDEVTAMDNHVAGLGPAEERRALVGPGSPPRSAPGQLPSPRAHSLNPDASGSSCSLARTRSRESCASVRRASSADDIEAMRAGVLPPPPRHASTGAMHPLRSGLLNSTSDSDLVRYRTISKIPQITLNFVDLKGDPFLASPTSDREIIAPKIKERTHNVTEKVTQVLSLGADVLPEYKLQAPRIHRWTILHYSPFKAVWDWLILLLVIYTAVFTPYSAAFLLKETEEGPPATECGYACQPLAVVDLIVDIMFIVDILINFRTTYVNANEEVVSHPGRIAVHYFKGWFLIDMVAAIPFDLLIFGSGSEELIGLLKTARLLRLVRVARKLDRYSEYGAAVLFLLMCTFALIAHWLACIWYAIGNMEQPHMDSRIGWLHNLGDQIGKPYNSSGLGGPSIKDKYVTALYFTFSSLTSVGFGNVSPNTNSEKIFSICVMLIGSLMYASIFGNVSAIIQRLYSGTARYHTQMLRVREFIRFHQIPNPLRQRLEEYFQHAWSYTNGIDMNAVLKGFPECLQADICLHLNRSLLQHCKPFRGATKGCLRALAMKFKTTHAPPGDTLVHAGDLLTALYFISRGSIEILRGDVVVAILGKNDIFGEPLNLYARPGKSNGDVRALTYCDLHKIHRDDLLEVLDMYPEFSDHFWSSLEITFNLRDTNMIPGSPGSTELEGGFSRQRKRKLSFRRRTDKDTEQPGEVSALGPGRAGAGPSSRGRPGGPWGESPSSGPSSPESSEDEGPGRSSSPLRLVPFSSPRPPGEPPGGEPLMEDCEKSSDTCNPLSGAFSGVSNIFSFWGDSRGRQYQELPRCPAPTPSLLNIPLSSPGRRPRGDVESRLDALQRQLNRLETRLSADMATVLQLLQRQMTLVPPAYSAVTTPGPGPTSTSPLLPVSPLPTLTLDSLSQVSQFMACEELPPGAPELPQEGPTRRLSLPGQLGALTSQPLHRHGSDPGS

In order of falling “hERG current change (%, negative = inhibition) at 1uM” value:
1. CC1CCC(C(C)C)C(OC(=O)COC(=O)c2cccn2C)C1 (centres unmarked)  17.6%
2. Cc1ccc(NC(=O)C(=O)c2c[nH]c3ccccc23)cc1  16.3%
3. Cc1ccc(NC(=O)COC(=O)CN2C(=O)NC(C)(C)C2=O)cc1S(=O)(=O)N1CCOCC1  14.4%
4. Cc1cccc(-n2c(SCCC(=O)O)nnc2-c2cccs2)c1C  13.4%
5. CN(C)/C=C(\C(=O)c1ccccc1)c1nnnn1-c1ccccc1  12.4%
6. CN(CC(=O)NCCc1ccccc1)Cc1ccco1  12.1%
7. Cn1nnnc1SCC(=O)c1ccc2c(c1)OCCO2  11.8%
8. Cc1nc(-c2ccccc2O)n(-c2ccccc2)n1  11.6%
9. CC1(C)CN(C(=S)Nc2ccc(F)cc2F)C1=O  11.1%
10. Cc1ccc(-c2csc(N=C(N)N)n2)cc1  11%
11. O=C(Nc1ccccc1)c1cc([N+](=O)[O-])ccc1Cl  10%
12. Cc1ccc2ccc(S(=O)(=O)NCc3ccco3)cc2c1  9.89%
13. COc1cccc(-c2nnc3sc(-c4ccccc4)nn23)c1  8.88%
14. O=C(Nc1ccccc1)C(c1ccccc1)c1ccccc1  8.8%
15. COc1ccccc1NC(=O)CSc1nnc2ccccn12  8.34%
16. CC(Nc1cc(N2CCCC2)ccc1[N+](=O)[O-])c1ccccc1 (centres unmarked)  7.88%
17. Cc1ccc2c(c1)c1c3n2CCN(C(=O)Cn2c(-c4ccccc4)noc2=O)C3CCC1 (centres unmarked)  7.24%
18. CCOC(=O)C1(CC2CC2)CCN(Cc2ccc(O)c(Cl)c2)CC1  5.92%
19. OCCN1CCN(c2nc(-c3ccccc3O)nc3ccccc23)CC1  5.86%
20. COc1ccc(CCN(C(=O)C(F)(F)F)C(C(=O)NC2CCCC2)c2cccs2)cc1 (centres unmarked)  5.29%
21. CC(=O)N/N=C(/C)c1ccc(NC(=O)c2csc(C)c2C)cc1  4.17%
22. CCc1ccc(C(=O)Nc2cccnc2Oc2ccc(Cl)cc2)cc1  3.24%
23. S=C(Nc1ccccc1Cl)N(Cc1ccccc1)Cc1ccccn1  2.77%
24. COc1ccc(CCN2C(=O)CC(N3CCN(S(=O)(=O)c4ccccc4)CC3)C2=O)cc1 (centres unmarked)  1.91%
25. COc1ccc(OC)c(NC(=O)CCCCCn2nnc3ccccc3c2=O)c1  1.62%
26. O=C(NNC(=O)c1nn(-c2ccc(F)cc2)ccc1=O)c1ccc(Cl)cc1  -2.41%
